{
  "source": "patent US9604926B2",
  "about": "(THE UNIVERSITY OF MISSISSIPPI, priority 2007, dated 2017)",
  "key": {"[1]": {"biological_target": "σ-2 receptor (Rattus norvegicus (Rat), UniProt Q5U3Y7)", "sequence (Q5U3Y7 whole entry)": "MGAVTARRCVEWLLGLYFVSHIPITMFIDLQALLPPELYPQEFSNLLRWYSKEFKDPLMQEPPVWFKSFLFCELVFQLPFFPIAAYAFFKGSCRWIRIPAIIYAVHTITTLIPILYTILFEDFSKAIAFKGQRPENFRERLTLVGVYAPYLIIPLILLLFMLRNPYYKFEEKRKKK", "experiment": "σ-2 receptor binding in rat brain homogenates ([3H]DTG plus (+)-pentazocine)"}, "[2]": {"biological_target": "σ-1 receptor (Rattus norvegicus (Rat), UniProt Q9R0C9)", "sequence (Q9R0C9 whole entry)": "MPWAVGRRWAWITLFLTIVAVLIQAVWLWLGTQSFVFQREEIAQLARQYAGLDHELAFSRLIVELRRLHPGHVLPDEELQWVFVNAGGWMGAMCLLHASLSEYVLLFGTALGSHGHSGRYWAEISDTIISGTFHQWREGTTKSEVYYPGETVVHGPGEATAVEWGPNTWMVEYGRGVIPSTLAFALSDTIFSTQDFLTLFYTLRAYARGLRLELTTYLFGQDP", "experiment": "σ-1 receptor binding in rat brain homogenates ([3H](+)-pentazocine)"}, "[3]": {"settings": "read-out: Ki (nm) σ2, compound listing tables"}, "[4]": {"settings": "read-out: Ki (nM) σ1, compound listing tables"}, "[5]": {"settings": "read-out: Ki (nM) σ2, compound listing tables"}},
  "note": "Like-named read-outs stand apart in the source and are kept apart here.",
  "data": [
    {"smiles": "CC(CCCn1c(=S)sc2ccccc21)N1CCN(C2CCCCC2)CC1", "note": "(stereo not drawn) [AZ-59]", "values": [
      {"measurement": "Ki", "setting": "[1]; [3]", "value": "0.99 ± 0.178", "unit": "nM"},
      {"measurement": "Ki", "setting": "[2]; read-out: Ki (nm) σ1, compound listing tables", "value": "8.94 ± 1.64", "unit": "nM"}
    ]},
    {"smiles": "CC(CCCN1C(=O)CSc2ccccc21)N1CCN(C2CCCCC2)CC1", "note": "(stereo not drawn) [AZ-60]", "values": [
      {"measurement": "Ki", "setting": "[1]; [3]", "value": "5.49 ± 1.1", "unit": "nM"}
    ]},
    {"smiles": "O=c1sc2cc(F)ccc2n1CCCCN1CCN(C2CCCCC2)CC1", "note": "[AZ-68]", "values": [
      {"measurement": "Ki", "setting": "[1]; [3]", "value": "0.22 ± 0.09", "unit": "nM"}
    ]},
    {"smiles": "O=c1oc2ccccc2n1CCCCN1CCN(C2CCCCC2)CC1", "note": "[CM 121]", "values": [
      {"measurement": "Ki", "setting": "[2]; [4]", "value": "11.3 ± 1.25", "unit": "nM"},
      {"measurement": "Ki", "setting": "[2]; read-out: σ-1 (Ki), rat brain homogenates", "value": "11.3 ± 1.25", "unit": "nM"}
    ]},
    {"smiles": "O=C1CCN(CCCCn2c(=O)oc3ccccc32)CC1", "note": "[CM 152]", "values": [
      {"measurement": "Ki", "setting": "[1]; [5]", "value": "78.5 ± 39.6", "unit": "nM"}
    ]},
    {"smiles": "S=c1sc2ccccc2n1CCCCN1CCN(C2CCCCC2)CC1", "note": "[CM 156]", "values": [
      {"measurement": "Ki", "setting": "[1]; [5]", "value": "0.55 ± 0.08", "unit": "nM"}
    ]},
    {"smiles": "O=c1oc2ccccc2n1CCCCN1CCN(CC2CC2)CC1", "note": "[CM 162]", "values": [
      {"measurement": "Ki", "setting": "[1]; [5]", "value": "46.8 ± 10.2", "unit": "nM"},
      {"measurement": "Ki", "setting": "[2]; [4]", "value": "10.8 ± 1", "unit": "nM"}
    ]},
    {"smiles": "O=c1oc2ccccc2n1CCCCN1CCN(CCc2ccccc2)CC1", "note": "[CM 166]", "values": [
      {"measurement": "Ki", "setting": "[1]; [5]", "value": "92.7 ± 14.1", "unit": "nM"},
      {"measurement": "Ki", "setting": "[2]; [4]", "value": "3.15 ± 0.37", "unit": "nM"}
    ]},
    {"smiles": "O=c1oc2ccccc2n1CCCCN1CCN(c2ccc([N+](=O)[O-])cc2)CC1", "note": "[CM 167]", "values": [
      {"measurement": "Ki", "setting": "[1]; [5]", "value": "226 ± 17.5", "unit": "nM"},
      {"measurement": "Ki", "setting": "[2]; [4]", "value": "259 ± 33.5", "unit": "nM"}
    ]},
    {"smiles": "O=c1oc2ccccc2n1CCCCN1CCN(c2ccccn2)CC1", "note": "[CM 168]", "values": [
      {"measurement": "Ki", "setting": "[1]; [5]", "value": "128 ± 16.3", "unit": "nM"},
      {"measurement": "Ki", "setting": "[2]; [4]", "value": "312 ± 33.2", "unit": "nM"}
    ]},
    {"smiles": "O=c1oc2ccccc2n1CCCCN1CCN(c2ccc(Cl)cc2)CC1", "note": "[CM 169]", "values": [
      {"measurement": "Ki", "setting": "[1]; [5]", "value": "242 ± 29", "unit": "nM"},
      {"measurement": "Ki", "setting": "[2]; [4]", "value": "25.4 ± 4.72", "unit": "nM"}
    ]},
    {"smiles": "CCc1ccc2oc(=O)n(CCCCN3CCN(C4CCCCC4)CC3)c2c1", "note": "[CM 174]", "values": [
      {"measurement": "Ki", "setting": "[2]; [4]", "value": "4.04 ± 0.35", "unit": "nM"}
    ]},
    {"smiles": "O=c1oc2ccccc2n1CCN1CC=C(c2ccc(Cl)cc2)CC1", "note": "[CM 175]", "values": [
      {"measurement": "Ki", "setting": "[1]; [5]", "value": "616 ± 77.5", "unit": "nM"},
      {"measurement": "Ki", "setting": "[2]; [4]", "value": "21.4 ± 3.68", "unit": "nM"}
    ]},
    {"smiles": "O=c1oc2ccccc2n1CCN1CCN(CCc2ccccc2)CC1", "note": "[CM 176]", "values": [
      {"measurement": "Ki", "setting": "[2]; [4]", "value": "1.43 ± 0.26", "unit": "nM"}
    ]},
    {"smiles": "O=c1oc2ccccc2n1CCN1CCN(c2ccccn2)CC1", "note": "[CM 178]", "values": [
      {"measurement": "Ki", "setting": "[1]", "value": "> 10000", "unit": "nM"},
      {"measurement": "Ki", "setting": "[2]", "value": "> 10000", "unit": "nM"}
    ]},
    {"smiles": "O=c1oc2ccccc2n1CCN1CCN(c2ccc(Cl)cc2)CC1", "note": "[CM 179]", "values": [
      {"measurement": "Ki", "setting": "[1]; [5]", "value": "2260 ± 96.1", "unit": "nM"}
    ]},
    {"smiles": "O=c1oc2ccccc2n1CCN1CCN(CC2CCCCC2)CC1", "note": "[CM 181]", "values": [
      {"measurement": "Ki", "setting": "[1]; [5]", "value": "8.83 ± 1.17", "unit": "nM"}
    ]},
    {"smiles": "O=c1oc2ccccc2n1CCN1CCC(c2ccccc2)CC1", "note": "[CM 182]", "values": [
      {"measurement": "Ki", "setting": "[1]; [5]", "value": "777 ± 72.5", "unit": "nM"},
      {"measurement": "Ki", "setting": "[2]; [4]", "value": "14.1 ± 2.84", "unit": "nM"}
    ]},
    {"smiles": "CC(=O)c1ccc2oc(=O)n(CCCCN3CCN(C4CCCCC4)CC3)c2c1", "note": "[CM 184]", "values": [
      {"measurement": "Ki", "setting": "[1]; [5]", "value": "10.4 ± 1.54", "unit": "nM"},
      {"measurement": "Ki", "setting": "[2]; [4]", "value": "40.8 ± 6.21", "unit": "nM"}
    ]},
    {"smiles": "O=c1oc2cc([N+](=O)[O-])ccc2n1CCCCN1CCN(C2CCCCC2)CC1", "note": "[CM 188]", "values": [
      {"measurement": "Ki", "setting": "[1]; [5]", "value": "2.46 ± 0.18", "unit": "nM"}
    ]},
    {"smiles": "CC(=O)Nc1ccc2c(c1)oc(=O)n2CCCCN1CCN(C2CCCCC2)CC1", "note": "[CM 191]", "values": [
      {"measurement": "Ki", "setting": "[1]; [5]", "value": "77.4 ± 14.2", "unit": "nM"},
      {"measurement": "Ki", "setting": "[2]; [4]", "value": "214 ± 55.3", "unit": "nM"}
    ]},
    {"smiles": "COc1cc2c(cc1OC)CN(CCCCn1c(=O)oc3ccccc31)CC2", "note": "[CM 295]", "values": [
      {"measurement": "Ki", "setting": "[1]; [5]", "value": "1.52 ± 0.64", "unit": "nM"}
    ]},
    {"smiles": "COc1cc2c(cc1OC)CN(CCCCn1c(=S)sc3ccccc31)CC2", "note": "[CM 308]", "values": [
      {"measurement": "Ki", "setting": "[1]; [5]", "value": "0.56 ± 0.12", "unit": "nM"}
    ]},
    {"smiles": "O=c1n(CCCCN2CCN(c3ccc(F)cc3)CC2)c2ccccc2n1-c1ccc(F)cc1", "note": "[CM 322]", "values": [
      {"measurement": "Ki", "setting": "[1]; [5]", "value": "1.67 ± 0.16", "unit": "nM"}
    ]},
    {"smiles": "Fc1ccc(N2CCN(CCCCn3ccc4ccccc43)CC2)cc1", "note": "[CM 338]", "values": [
      {"measurement": "Ki", "setting": "[1]; [5]", "value": "1.09 ± 0.03", "unit": "nM"}
    ]},
    {"smiles": "O=c1oc2cc(-c3ccc(F)cc3)ccc2n1CCCCN1CCN(C2CCCCC2)CC1", "note": "[CM 343]", "values": [
      {"measurement": "Ki", "setting": "[1]; [5]", "value": "38.1 ± 1.42", "unit": "nM"},
      {"measurement": "Ki", "setting": "[2]; [4]", "value": "17.6 ± 0.82", "unit": "nM"}
    ]},
    {"smiles": "CC(=O)c1ccc2[nH]c(=O)n(CCCCN3CCN(c4ccc(F)cc4)CC3)c2c1", "note": "[CM 356]", "values": [
      {"measurement": "Ki", "setting": "[1]; [5]", "value": "1.21 ± 0.2", "unit": "nM"},
      {"measurement": "Ki", "setting": "[2]; [4]", "value": "27.8 ± 4.14", "unit": "nM"}
    ]},
    {"smiles": "COc1cc2c(cc1OC)CN(CCCCn1ccc3ccccc31)CC2", "note": "[CM 360]", "values": [
      {"measurement": "Ki", "setting": "[2]; [4]", "value": "73.2 ± 5.58", "unit": "nM"}
    ]},
    {"smiles": "O=c1oc2ccccc2n1CCCCN1CCN(c2ccccc2F)CC1", "note": "[CM 362]", "values": [
      {"measurement": "Ki", "setting": "[1]; [5]", "value": "2.79 ± 0.49", "unit": "nM"}
    ]},
    {"smiles": "O=c1oc2ccc(Br)cc2n1CCCCN1CCN(C2CCCCC2)CC1", "note": "[CM 365]", "values": [
      {"measurement": "Ki", "setting": "[1]; [5]", "value": "0.055 ± 0.0063", "unit": "nM"},
      {"measurement": "Ki", "setting": "[2]; [4]", "value": "5.94 ± 0.35", "unit": "nM"}
    ]},
    {"smiles": "O=c1[nH]c2ccc(-c3ccc(F)cc3)cc2n1CCCCN1CCN(C2CCCCC2)CC1", "note": "[CM 366]", "values": [
      {"measurement": "Ki", "setting": "[1]; [5]", "value": "0.0061 ± 0.00096", "unit": "nM"},
      {"measurement": "Ki", "setting": "[2]; [4]", "value": "22.6 ± 1.14", "unit": "nM"}
    ]},
    {"smiles": "S=c1oc2ccccc2n1CCCCN1CCN(C2CCCCC2)CC1", "note": "[CM 372]", "values": [
      {"measurement": "Ki", "setting": "[1]; [5]", "value": "0.77 ± 0.06", "unit": "nM"}
    ]}
  ]
}
